According to PubChem BioAssay AID1030 (National Center for Advancing Translational Sciences (NCATS), 2008):
Several values for one entry are separate records, joined by “and”; a condition that tells them apart may be missing. Equal entries are not always repeated. Out of some 220,000 compounds screened, about 16,000 (7.3%) were called active. Inconclusive means that the source gave no clear call. Such entries were picked first, then a sample of the others. Calls follow the shape of the dose curve; as a rule, active = well fitted inhibition curve with a large enough effect (not every such curve was filed as active); inconclusive = small, poorly fitted or top-dose-only effect, or another doubt; inactive = no such curve, though single readings can be large or run the other way. No potency is given beside an inconclusive call; the fits are too rough.

Each compound was assayed against Aldehyde dehydrogenase 1A1 (Homo sapiens) (UniProt P00352) (assay: qHTS Assay for Inhibitors of Aldehyde Dehydrogenase 1 (ALDH1A1)). Conditions: Purified ALDH1A1, NADH fluorescence, propionaldehyde substrate; series mostly up to 75.3 µM; activity, negative = inhibition: at the top concentration.
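For activity, negative = inhibition in this document: plate controls were no enzyme wells and a reference inhibitor.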
Potency is read from the fitted curve at half-maximal effect; tags tell the direction and shape of the fitted curve.

Sequence of UniProt P00352 (P00352 whole entry, looked up): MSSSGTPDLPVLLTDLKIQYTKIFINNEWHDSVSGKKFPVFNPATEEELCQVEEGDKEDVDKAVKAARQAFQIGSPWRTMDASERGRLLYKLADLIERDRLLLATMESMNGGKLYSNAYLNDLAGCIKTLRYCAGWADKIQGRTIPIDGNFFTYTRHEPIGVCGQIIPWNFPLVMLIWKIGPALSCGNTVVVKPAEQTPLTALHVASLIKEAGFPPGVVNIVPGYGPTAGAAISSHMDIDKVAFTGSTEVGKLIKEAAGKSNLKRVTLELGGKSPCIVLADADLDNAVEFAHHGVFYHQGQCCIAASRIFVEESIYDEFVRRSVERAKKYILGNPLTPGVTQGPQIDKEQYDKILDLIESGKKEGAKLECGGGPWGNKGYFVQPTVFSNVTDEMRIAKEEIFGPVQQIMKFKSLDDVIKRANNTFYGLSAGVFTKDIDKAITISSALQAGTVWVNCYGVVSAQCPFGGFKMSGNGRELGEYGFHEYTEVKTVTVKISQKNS

Row | SMILES | activity, negative = inhibition | Potency
1 | O=C(CCSCc1ccc(Cl)cc1)NCc1cccnc1 | inactive: -0.324% | 
2 | O=C(CSCc1nc2ccccc2[nH]1)Nc1ccc(Oc2ccccc2)cc1 |  | inconclusive [inhibitor, single point]
3 | c1ccc(-c2cc(CSc3nc4ccccc4[nH]3)on2)cc1 | inactive: -7.49% | 
4 | Cn1c(NCCCO)nc2c(c1=O)C1(CCCCC1)Cc1ccccc1-2 |  | inconclusive [inhibitor, partial curve]
5 | Nc1cc(C(F)(F)F)cc([N+](=O)[O-])c1N |  | inconclusive [inhibitor, single point]
6 | CC(=O)N1N=C2c3ccccc3CCC2C1c1ccc(F)cc1 (stereo not drawn) | inactive: -7.87% | 
7 | CCC/C=C(\CCC)C(NC(=O)c1cccs1)c1ccc(C(F)(F)F)cc1 (stereo not drawn) | inactive: 1.93% | 
8 | O=C(Nc1ccc(Cl)c(Cl)c1)OCc1cnc(Cl)s1 | inactive: -2.27% | 
9 | CCOC1=NN(c2ccc(Cl)cc2)C(=O)/C1=C\N(C)C |  | inconclusive [inhibitor, single point]
10 | O=C1Nc2ccccc2C12Nc1ccccc1S2 (stereo not drawn) |  | inconclusive [inhibitor, partial curve]
11 | COc1ccc(S(=O)(=O)Nc2ccc(F)cc2)c(C)c1C |  | inconclusive [inhibitor, single point]
12 | COc1ccc(/C=N\NC(=O)c2nn(C)cc2Cl)cc1CN1CCOCC1 |  | inconclusive [inhibitor, single point]
13 | CCOC(=O)c1cc(C#N)c(=S)[nH]c1C |  | active: 3.55 µM
14 | CC(C(=O)Nc1sc2c(c1C(=O)NCC1CCCO1)CCC2)N1C(=O)c2ccccc2C1=O (stereo not drawn) |  | inconclusive [inhibitor, single point]
15 | CC1CC(C)CN(C(=O)COC(=O)CCc2nc3ccccc3c(=O)[nH]2)C1 (stereo not drawn) |  | active: 3.55 µM
16 | CC(=O)NC(Cc1ccccc1)C(=O)OCC(=O)c1ccc(F)cc1 (stereo not drawn) | inactive: 6.11% | 
17 | CCOc1ccc(S(=O)(=O)Nc2cccc(C)c2)c2cccnc12 | inactive: 4.51% | 
18 | CCOc1ccc(N=c2scc(-c3ccc(OC)cc3)n2CCO)cc1 | inactive: 0.822% | 
19 | COC(=O)C/C=C\[C@@H](C)[C@@H](/C=N\O[C@@H](C)c1cn([C@H](CO)Cc2ccccc2)nn1)OC | inactive: 18.1% [at 13.5 µM] and inactive: 1.96% [at 13.5 µM] | 
20 | COc1ccc(CCNC(=O)Cn2c(=O)cnc3ccccc32)cc1 |  | inconclusive [inhibitor, full curve]
21 | O=C(CCSCc1ccccc1Cl)NC1CCCCC1 | inactive: 3.91% | 
22 | Nc1nonc1-c1nc2ccccc2n1CC(=O)N/N=C/c1ccc(-c2cccc(C(=O)O)c2)o1 |  | inconclusive [inhibitor, single point]
23 | CN(C)/C=C/C(=O)c1cnc(-c2ccccc2Cl)s1 |  | active: 7.08 µM
24 | O=C(CSc1nnc(-c2ccccc2)o1)c1nnc(-c2ccccc2)o1 |  | inconclusive [inhibitor, partial curve]
25 | O=C(O)c1ccc(SSc2ccc(C(=O)O)cn2)nc1 |  | inconclusive [inhibitor, partial curve, poor fit]

Row | SMILES | activity, negative = inhibition | Potency
26 | COC(=O)c1cc(Cl)nc2ccccc12 | inactive: -6.02% | 
27 | Cc1onc(-c2ccccc2)c1NC(=O)N(CCC#N)Cc1ccccc1 |  | inconclusive [inhibitor, single point]
28 | O=C(N=Nc1c(O)n(C2OC(=O)c3ccccc32)c2ccccc12)c1ccc(O)cc1 (stereo not drawn) | inactive: 1.8% | 
29 | O=C(c1cccc(NS(=O)(=O)c2ccc(F)c(F)c2)c1)N1CCN(Cc2ccccc2)CC1 |  | inconclusive [inhibitor, partial curve]
30 | O=C(N/N=C/c1cc(Br)ccc1O)c1cccc(N2CCCC2=O)c1 | inactive: 0.0725% | 
31 | CN(C)C(=O)N1CCNCC1 | inactive: 12.2% | 
32 | COc1ccc(C(=O)CN(C(=O)c2ccc(Cl)cc2)N2C(=O)C3CCCCC3C2=O)cc1 (stereo not drawn) |  | inconclusive [inhibitor, single point]
33 | CCN(CC)c1ccc(/C=N/N2CCN(Cc3ccc(C)cc3C)CC2)c(O)c1 |  | inconclusive [inhibitor, single point]
34 | Cc1cc(-c2nc(C)c(C(=O)NN)s2)no1 |  | active: 10 µM
35 | CCOC(=O)c1ccc(NC(=O)COc2cc(=O)n(CC)c3ccccc23)cc1 |  | inconclusive [inhibitor, full curve, poor fit]
36 | COc1ccc([N+](=O)[O-])cc1NC(=O)c1ccccc1SC |  | inconclusive [inhibitor, single point]
37 | COc1ccc(-n2nc(C(=O)NCc3ccco3)c3c4ccccc4n(C)c3c2=O)cc1 |  | inconclusive [inhibitor, partial curve]
38 | CCc1c(C)nc2[nH]nc(NC(=O)C(F)(F)F)n2c1=O |  | inconclusive [inhibitor, partial curve]
39 | O[C@H](CNc1ccccn1)c1ccccc1 | inactive: -6.2% [at 13.5 µM] | 
40 | COc1ccc(CNC(=O)C2CCC(CNS(=O)(=O)c3cccc4nsnc34)CC2)cc1 (stereo not drawn) |  | inconclusive [inhibitor, partial curve]
41 | O=C(CC1C(=O)NCCN1CC1CCCCC1)NCc1ccccc1Cl (stereo not drawn) |  | inconclusive [inhibitor, single point]
42 | Cc1ccc(C(=O)Nc2ccc3[nH]c(=O)[nH]c3c2)c(C)c1 |  | inconclusive [inhibitor, single point]
43 | CCN(CC)CCCNC(=S)N(Cc1cccs1)Cc1cc2cc3c(cc2[nH]c1=O)OCCO3 |  | inconclusive [inhibitor, single point]
44 | Cc1ccc(-c2nc3ccccc3[nH]2)cc1N |  | inconclusive [inhibitor, partial curve]
45 | C=CCN1C(=O)c2ccccc2Sc2ccc(C(=O)N3CCN(C)CC3)cc21 |  | inconclusive [inhibitor, single point]
46 | CCNc1ncc2nc(-c3ccc(Cl)cc3)c(=O)n(Cc3cccc(OC)c3)c2n1 | inactive: 1.5% | 
47 | O=C(COC(=O)Cc1ccc(Cl)cc1)Nc1cc(S(=O)(=O)N2CCOCC2)ccc1N1CCCC1 |  | inconclusive [inhibitor, single point]
48 | c1ncc(-c2ccoc2)c(NC2CC2)n1 |  | inconclusive [inhibitor, single point]
49 | CC1CCN(C(=O)COc2ccc(Nc3ccccc3)cc2)CC1 |  | inconclusive [inhibitor, single point]
50 | CC(C)NC(=O)CN1CCN(c2ncccn2)CC1 |  | active: 28.2 µM

Row | SMILES | activity, negative = inhibition | Potency
51 | CNC(=S)Nc1ccc([N+](=O)[O-])c(C)c1 |  | inconclusive [inhibitor, single point]
52 | COc1cc(/C=C/C(=O)O)cc(S(=O)(=O)NCCCO)c1OC |  | inconclusive [inhibitor, single point]
53 | Cc1ccc(NC(=O)c2cc(-c3cccs3)on2)cc1C |  | inconclusive [inhibitor, single point]
54 | CC(C)(C)c1nnc2sc(SCC(=O)c3ccc4c(c3)OCCO4)nn2c1=O |  | inconclusive [inhibitor, full curve, poor fit]
55 | Cc1ccc(-n2nc3ccc(NC(=O)/C=C/c4ccco4)cc3n2)cc1 | inactive: -8.91% | 
56 | CCOc1ccc(CN(C)C(C)C(=O)Nc2ccc([N+](=O)[O-])cc2Cl)cc1OC (stereo not drawn) |  | inconclusive [inhibitor, single point]
57 | COCCN(C(=O)Cc1cccs1)C(C(=O)NCc1ccc(OC)cc1)c1ccc(C)cc1 (stereo not drawn) |  | active: 2 µM
58 | COc1cc2c(cc1NC(=O)CSc1ccccc1)oc1ccccc12 |  | inconclusive [inhibitor, single point]
59 | O=C(Oc1ccccc1)c1ccc2nsnc2c1 |  | active: 3.98 µM
60 | NC1=C(O)C(=O)[C@H](c2c[nH]c3ccc(OCc4ccccc4)cc23)O1 | inactive: -5.81% [at 13.5 µM] | 
61 | CC(C)(C)NS(=O)(=O)CC12CCC(CC1=O)C2(C)C (stereo not drawn) |  | inconclusive [inhibitor, single point]
62 | COc1ccc(C(=O)C2CCCN(Cc3cnc(N4CCOCC4)s3)C2)c(OC)c1 (stereo not drawn) |  | inconclusive [inhibitor, partial curve]
63 | CCOC(=O)N1CCN(C(=O)c2ccc3nc4ccsc4c(=O)n3c2)CC1 |  | inconclusive [inhibitor, partial curve]
64 | COC(=O)COc1ccc(S(=O)(=O)NCCC2=CCCCC2)cc1 |  | active: 22.4 µM
65 | COC(=O)C1=C(C)NC(=O)/C1=C\c1cc(C)n(-c2cccc(C)c2)c1C |  | inconclusive [inhibitor, single point]
66 | CC(=O)Oc1ccc(N2C(=O)C3C4C=CC(CO)(O4)C3C2=O)cc1 (stereo not drawn) |  | active: 0.708 µM
67 | COc1ccc(CNC(=O)c2ccc(Br)cc2)cc1 | inactive: 8.17% | 
68 | Cc1cc(C(F)(F)F)nc(SCc2ccc(C(=O)O)o2)n1 |  | inconclusive [inhibitor, single point]
69 | CCN1C(=O)C2(C(C(=O)c3cc4ccccc4o3)=C(O)C(=O)N2CCCN(C)C)c2ccccc21 (stereo not drawn) |  | inconclusive [inhibitor, single point]
70 | Nc1nc(CSc2nnnn2-c2ccccc2)nc(N2CCCc3ccccc32)n1 |  | active: 2.82 µM
71 | OCCNCCCOc1cccc(Cl)c1Cl | inactive: -7.49% | 
72 | O=C(O)c1ccccc1C1=Nc2ccc(O)cc2Oc2cc(O)ccc21 | inactive: 6.11% | 
73 | N#Cc1c(-c2ccco2)cc(C2CC2)nc1N |  | inconclusive [inhibitor, partial curve]
